In the supplement of paper PMC7826260:
The other results are listed elsewhere or left out. One pool of 16,384 single-stranded DNAs met each Rep nickase domain in vitro (3 µM enzyme, 1 h, 37 °C); shown is the middle of each 90-letter strand. Uncut reads are compared with the no-enzyme pool on a log2 scale; uncut sequences lie near 0, cut ones below; no hit call is given. Counts are relative to all reads; where an enzyme cuts many sequences, the uncut ones exceed 0.

Key:
Test in all cases: uncleaved DNA left, log2 of reads against the no-enzyme library (log2 ratio); higher = less cleavage (more negative = more Rep cleavage of the k-mer); sequences stand for … in CTCGTCCG…ACCGGAGA
[1] = tested on: T1, Rep nickase domain of Muscovy duck circovirus
T1 sequence (Rep 1-111, printed without the tag): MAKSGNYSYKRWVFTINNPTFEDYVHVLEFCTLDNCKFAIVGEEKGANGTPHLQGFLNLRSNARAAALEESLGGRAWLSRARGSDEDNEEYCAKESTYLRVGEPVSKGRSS
Description: (§1)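 A pool of 90-nt single-stranded DNAs with seven random bases just before the constant AC of the nick site (name = the seven bases) was cut by 3 µM recombinant His6-SUMO-tagged Rep nickase domain (300 nM DNA, 50 mM HEPES pH 8.0, 50 mM NaCl, 1 mM MnCl2, 1 h, 37 °C, three replicates). Uncut DNA was amplified and sequenced.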

[2] = tested on: T2, Rep nickase domain of banana bunchy top virus
T2 sequence (Rep 1-94, printed without the tag): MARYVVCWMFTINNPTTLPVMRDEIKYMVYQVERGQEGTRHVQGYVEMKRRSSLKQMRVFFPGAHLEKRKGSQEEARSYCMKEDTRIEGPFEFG
Description: as §1

[3] = tested on: T3, Rep nickase domain of cabbage leaf curl virus
T3 sequence (Rep 1-116, printed without the tag): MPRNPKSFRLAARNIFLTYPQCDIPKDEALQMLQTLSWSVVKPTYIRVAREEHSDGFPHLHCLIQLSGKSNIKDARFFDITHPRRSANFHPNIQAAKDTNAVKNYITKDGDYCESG
Description: as §1

[4] = tested on: T4, Rep nickase domain of chickpea chlorotic dwarf virus
T4 sequence (Rep 1-124, printed without the tag): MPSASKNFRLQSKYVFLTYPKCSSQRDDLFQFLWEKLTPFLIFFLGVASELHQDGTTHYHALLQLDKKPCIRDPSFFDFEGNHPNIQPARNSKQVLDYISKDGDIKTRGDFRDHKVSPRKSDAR
Description: as §1

[5] = tested on: T5, Rep nickase domain of faba bean necrotic yellows virus
T5 sequence (Rep 1-98, printed without the tag): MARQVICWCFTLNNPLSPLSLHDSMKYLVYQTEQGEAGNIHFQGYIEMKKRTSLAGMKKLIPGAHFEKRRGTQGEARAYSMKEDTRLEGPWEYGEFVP
Description: as §1

[6] = tested on: T6, Rep nickase domain of maize striate mosaic virus
T6 sequence (Rep 1-117, printed without the tag): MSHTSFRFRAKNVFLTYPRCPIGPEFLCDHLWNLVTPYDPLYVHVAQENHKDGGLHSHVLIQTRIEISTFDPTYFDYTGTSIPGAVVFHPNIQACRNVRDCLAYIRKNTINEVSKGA
Description: as §1

[7] = tested on: T7, Rep nickase domain of porcine circovirus 2
T7 sequence (Rep 2-116, printed without the tag): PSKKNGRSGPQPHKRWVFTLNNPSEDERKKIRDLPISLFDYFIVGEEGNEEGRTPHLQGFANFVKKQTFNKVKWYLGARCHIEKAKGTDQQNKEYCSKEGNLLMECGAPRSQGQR
Description: as §1

[8] = tested on: T8, Rep nickase domain of tomato golden mosaic virus
T8 sequence (Rep 1-124, printed without the tag): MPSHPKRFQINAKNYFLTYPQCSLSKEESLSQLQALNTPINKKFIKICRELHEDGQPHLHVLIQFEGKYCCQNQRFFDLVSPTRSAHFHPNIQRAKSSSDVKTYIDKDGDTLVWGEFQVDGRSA
Description: as §1

[9] = tested on: T9, Rep nickase domain of tomato yellow leaf curl virus
T9 sequence (Rep 1-136, printed without the tag): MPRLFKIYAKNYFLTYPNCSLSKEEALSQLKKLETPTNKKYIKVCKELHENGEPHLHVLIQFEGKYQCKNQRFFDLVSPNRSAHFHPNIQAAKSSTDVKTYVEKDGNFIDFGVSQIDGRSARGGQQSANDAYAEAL
Description: as §1

[10] = tested on: T10, Rep nickase domain of wheat dwarf virus
T10 sequence (Rep 1-137, printed without the tag): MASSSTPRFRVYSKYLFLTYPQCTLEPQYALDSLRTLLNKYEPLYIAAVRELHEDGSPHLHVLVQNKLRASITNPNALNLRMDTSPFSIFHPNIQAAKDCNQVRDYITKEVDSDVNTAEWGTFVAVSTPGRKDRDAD
Description: as §1

| Sequence | uncleaved DNA left (log2) [1] | uncleaved DNA left (log2) [2] | uncleaved DNA left (log2) [3] | uncleaved DNA left (log2) [4] | uncleaved DNA left (log2) [5] | uncleaved DNA left (log2) [6] | uncleaved DNA left (log2) [7] | uncleaved DNA left (log2) [8] | uncleaved DNA left (log2) [9] | uncleaved DNA left (log2) [10] |
| --- | --- | --- | --- | --- | --- | --- | --- | --- | --- | --- |
| TCAAACT | -0.101 | -0.102 | -0.241 | -2.84 | 0.0456 | -0.784 | -0.35 | -0.0993 | 0.0156 | -0.129 |
| GTATTAT | -0.0995 | 0.0132 | 0.321 | 0.848 | -0.0763 | 1.78 | -0.015 | 0.144 | 0.0697 | 0.162 |
| CTGGCCT | -0.282 | -0.229 | -0.247 | -0.167 | -0.24 | 0.528 | -0.16 | -0.184 | -0.201 | -0.339 |
| TTGGGAG | 0.125 | 0.0243 | -0.259 | -0.176 | 0.0592 | -0.652 | 0.104 | 0.0821 | -0.00344 | -1.82e-05 |
| GATACTC | 0.0211 | 0.0201 | 0.13 | 0.428 | -0.0103 | 0.42 | 0.112 | -0.00592 | -0.0503 | 0.141 |
| CGCTCAG | 0.0415 | 0.0192 | -0.485 | -0.466 | -0.061 | -0.763 | 0.0608 | 0.0324 | -0.0592 | -0.0219 |
| GCTCATC | 0.116 | 0.108 | 0.195 | 0.568 | 0.077 | 0.00644 | 0.18 | 0.027 | 0.0886 | 0.0687 |
| GGCGCCC | -0.098 | 0.0167 | 0.235 | 0.736 | -0.0475 | 1.03 | 0.0384 | 0.029 | -0.0842 | -0.0232 |
| CGACGTT | 0.101 | 0.0109 | 0.0451 | 0.267 | -0.00364 | 1.19 | 0.0418 | -0.0323 | -0.173 | 0.0522 |
| CCCACAG | 0.0118 | -0.0296 | -0.685 | -0.784 | -0.00358 | -0.964 | 0.135 | -0.0252 | -0.0495 | -0.0371 |
| GCGTGGG | 0.161 | 0.0133 | -0.256 | -0.275 | 0.238 | -0.517 | 0.199 | 0.164 | 0.0777 | -0.00227 |
| TCGTTGA | 0.137 | -0.0469 | -0.113 | -0.349 | 0.0418 | -0.73 | 0.0619 | 0.0293 | 0.0297 | 0.0442 |
| GGGGATA | -0.0103 | 0.104 | 0.828 | 1.97 | 0.0317 | 2.32 | 0.22 | 0.038 | -0.051 | 0.0615 |
| TTCCGGA | 0.0462 | 0.0663 | 0.484 | 0.713 | 0.0566 | 0.789 | 0.173 | 0.0779 | 0.0721 | 0.0462 |
| CTGTATA | -0.0178 | -0.15 | -0.188 | -1.38 | 0.0792 | -0.428 | -0.211 | -0.00703 | -0.0158 | 0.0129 |
| TATCGCA | 0.0506 | 0.0205 | -0.441 | -1.58 | -0.00801 | -1.21 | -0.0413 | -0.0173 | -0.00218 | -0.02 |
| ATCGTGC | 0.0119 | -0.0635 | -0.618 | -0.541 | -0.0554 | -1.17 | 0.0986 | -0.0188 | 0.0244 | -0.154 |
| TAGTACC | -2.91 | -0.0591 | -1.1 | -2.01 | -1.96 | 0.00449 | -3.94 | -0.347 | 0.0912 | -1.31 |
| AGGCAAG | -0.0951 | 0.024 | -0.565 | -0.496 | -0.0801 | -0.913 | 0.0737 | -0.0484 | -0.0543 | -0.0854 |
| CGCCACA | -0.0331 | -0.0218 | -0.0406 | -0.799 | -0.0931 | -0.177 | -0.073 | 0.0127 | 0.0152 | -0.112 |
| CCTATTT | -0.00736 | -0.116 | -0.188 | -2.68 | -0.0676 | -0.665 | -0.833 | 0.00576 | -0.0604 | -0.0494 |
| GGTGAGC | 0.153 | 0.154 | 0.558 | 1.3 | -0.00344 | 1.58 | 0.202 | 0.0223 | 0.116 | 0.14 |
| CCGCCGT | -0.164 | -0.243 | -0.537 | -0.765 | -0.0376 | -0.748 | -0.0968 | -0.167 | -0.275 | -0.297 |
| TTTATCT | -0.0947 | 0.0775 | 0.0838 | -1.75 | 0.0135 | -0.141 | -0.637 | -0.0299 | 0.0965 | 0.0548 |
| TTCCAAG | 0.00597 | -0.0801 | -0.799 | -0.617 | -0.0553 | -1.08 | 0.0603 | -0.137 | 0.00514 | -0.0102 |
| GGAAAAA | 0.222 | 0.139 | 0.817 | 1.71 | 0.162 | 1.94 | 0.314 | 0.126 | 0.227 | 0.329 |
| CCATCAG | 0.0479 | 0.134 | -0.399 | 0.593 | 0.0512 | -0.0293 | 0.319 | 0.11 | 0.216 | -0.0152 |
| GGCCCTG | 0.106 | 0.122 | 0.135 | 0.897 | 0.0168 | 1.67 | 0.268 | 0.117 | 0.0762 | 0.0638 |
| CGTGTCT | -0.0496 | -0.127 | -0.0311 | -0.861 | -0.0634 | -0.298 | -0.389 | -0.154 | -0.0539 | -0.141 |
| TACGGCG | -0.0167 | -0.041 | -0.822 | 0.284 | 0.0883 | -0.714 | 0.109 | -0.0142 | 0.0424 | -0.113 |
